In publication PMC9381633:
Substitutions are numbered along the chain they refer to. No constants are given. Whether binding was seen depends on the method and setting. Binding seen in cells or lysates may run through a third protein. Some entries that bind do so weakly or less than the wild type. For part of these data: Where a sequence is shown, tags or fusion partners need not be part of it.

By UniProt entry, the sequences of proteins in these tests, tags left out. Where a name states a change or a piece, a line headed by the entry shows the natural chain unless it says otherwise. Residues count along the entry.
UniProt Q6DFW0: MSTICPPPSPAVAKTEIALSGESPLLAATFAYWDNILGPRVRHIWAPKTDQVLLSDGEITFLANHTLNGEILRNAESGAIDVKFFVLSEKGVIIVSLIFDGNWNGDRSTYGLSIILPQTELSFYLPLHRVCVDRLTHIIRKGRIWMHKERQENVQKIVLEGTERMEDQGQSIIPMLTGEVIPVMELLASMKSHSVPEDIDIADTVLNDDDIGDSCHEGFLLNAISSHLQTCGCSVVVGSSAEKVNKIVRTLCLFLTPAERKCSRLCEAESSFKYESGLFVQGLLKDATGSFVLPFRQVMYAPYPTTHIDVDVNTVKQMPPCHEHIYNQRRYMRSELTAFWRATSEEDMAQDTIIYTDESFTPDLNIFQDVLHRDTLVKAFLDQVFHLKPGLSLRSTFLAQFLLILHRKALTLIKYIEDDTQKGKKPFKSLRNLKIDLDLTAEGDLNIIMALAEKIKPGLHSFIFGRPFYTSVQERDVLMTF
UniProt Q63537: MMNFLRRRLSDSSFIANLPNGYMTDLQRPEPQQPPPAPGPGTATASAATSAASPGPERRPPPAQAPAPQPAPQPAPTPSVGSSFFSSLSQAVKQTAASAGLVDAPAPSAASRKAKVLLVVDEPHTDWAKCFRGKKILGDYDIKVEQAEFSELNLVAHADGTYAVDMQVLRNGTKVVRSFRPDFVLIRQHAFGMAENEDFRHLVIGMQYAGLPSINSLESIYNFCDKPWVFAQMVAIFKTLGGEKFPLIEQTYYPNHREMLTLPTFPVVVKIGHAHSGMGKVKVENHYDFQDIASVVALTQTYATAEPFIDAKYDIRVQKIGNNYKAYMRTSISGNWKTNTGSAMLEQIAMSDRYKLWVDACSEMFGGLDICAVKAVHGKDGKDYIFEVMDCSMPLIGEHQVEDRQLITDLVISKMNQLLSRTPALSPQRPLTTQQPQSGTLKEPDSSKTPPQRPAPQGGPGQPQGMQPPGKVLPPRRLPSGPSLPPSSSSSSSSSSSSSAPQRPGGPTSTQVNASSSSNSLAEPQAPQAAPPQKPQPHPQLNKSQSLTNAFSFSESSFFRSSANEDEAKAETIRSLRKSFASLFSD
UniProt O70441: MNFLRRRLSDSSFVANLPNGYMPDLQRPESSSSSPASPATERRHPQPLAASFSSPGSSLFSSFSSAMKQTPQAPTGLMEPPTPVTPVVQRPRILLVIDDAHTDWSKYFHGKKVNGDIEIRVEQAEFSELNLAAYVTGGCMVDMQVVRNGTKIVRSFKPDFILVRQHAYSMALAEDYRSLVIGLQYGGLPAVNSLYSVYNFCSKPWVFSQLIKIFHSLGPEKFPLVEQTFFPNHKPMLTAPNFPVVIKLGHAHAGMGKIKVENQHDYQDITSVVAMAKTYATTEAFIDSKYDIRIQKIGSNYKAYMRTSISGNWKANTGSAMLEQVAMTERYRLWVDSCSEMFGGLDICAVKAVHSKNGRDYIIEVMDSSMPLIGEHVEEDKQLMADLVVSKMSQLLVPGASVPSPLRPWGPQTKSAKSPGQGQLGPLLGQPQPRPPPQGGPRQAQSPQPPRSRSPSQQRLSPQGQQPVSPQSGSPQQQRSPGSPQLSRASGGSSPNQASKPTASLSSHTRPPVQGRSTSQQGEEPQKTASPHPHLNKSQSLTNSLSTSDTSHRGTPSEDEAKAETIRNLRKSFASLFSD
EGFP-Syn3aΔE: residues 1-529 of O70441
EGFP-Syn3aΔJE: residues 1-400 of O70441
EGFP-Syn3aΔCJE: residues 1-91 of O70441
EGFP-Syn3aΔBCJE: residues 1-28 of O70441

B1: endogenous SMCR8 (mouse brain synaptosomes) (protein, UniProt Q3UMB5 1-935)
chain: MISAPDVVAFTKEDEYEEEPYNEPALPEEYSVPLFPYASQGANPWSKLSGAKFSRDFILISEFSEQVGPQPLLTIPNDTKVFGTFDLNYFSLRIMSVDYQASFVGHPPGSAYPKLNFVEDSKVVLGDSKEGAFAYVHHLTLYDLEARGFVRPFCMAYISADQHKIMQQFQELSAEFSKASECLKMGNRKAFAGELEKKLKDLDYTRTVLHTETEIQKKANDKGFYSSQAIEKANELANVEKSIIEHQDLLRQIRSYPRQKTKIPDLQPGDTEHTQDQADQVSTTSNPEESANADLYTCRPAYTPKLIKAKSTKCFDKKLKTLEELCDTEYFTQTLAQLSHIEHMFRGDLCYLLTSQIDRVLRKQQPITNFLFEDFVEVDDRMEKQENVPSQPSQDRLPPKPVEECPIPKVLISVGSYKSSVESVLIKMEQELGDEEYTGVEATEARSFDPQENLDYLDMDMKGSISSGESIEVLGTEKSASVLSKSDSQASLTVPLSPHVVRSKAVSHRTISEDSIEVLSTCPSEALIPDDFKASYPSAINEEEAYADNEGAIHFQASAGSPEPDETQEGNLENIPSQIDSSCCIGKESEGHLVPLPTPAYTLSDEDSVVSIPPQRYIQKDQGLHVDFGVENTDPSPRDNSCEMFPAYELDPSCLLASRDVSKMSLDNYSDTTSYMGSAASTSSDRIPSAPPAGLSSERHKKRAGQNALKFIRQYPFAHPAIYSLLSGRTLVVLGEDETIVRKLVTALSIFVPNYGCYAKPVKHWISSPLHIMDFQKWKLIGLQRVASPANVGTLHTLSRYSRYTSILDLDSKTLRCPLYRGTLVPRLADHRTQIKRGSTYYLHVQSMLTQLCSKAFLYTFCHHLHLPAHSEETQEAVASRQTSFLKLNLGLVNEDIRVVQYLAELLKLHYMQESPGTTHPLLRFDYVPSFLYKI
B2: Myc-tagged C9orf72L (protein, UniProt Q96LT7 1-481)
chain: MSTLCPPPSPAVAKTEIALSGKSPLLAATFAYWDNILGPRVRHIWAPKTEQVLLSDGEITFLANHTLNGEILRNAESGAIDVKFFVLSEKGVIIVSLIFDGNWNGDRSTYGLSIILPQTELSFYLPLHRVCVDRLTHIIRKGRIWMHKERQENVQKIILEGTERMEDQGQSIIPMLTGEVIPVMELLSSMKSHSVPEEIDIADTVLNDDDIGDSCHEGFLLNAISSHLQTCGCSVVVGSSAEKVNKIVRTLCLFLTPAERKCSRLCEAESSFKYESGLFVQGLLKDSTGSFVLPFRQVMYAPYPTTHIDVDVNTVKQMPPCHEHIYNQRRYMRSELTAFWRATSEEDMAQDTIIYTDESFTPDLNIFQDVLHRDTLVKAFLDQVFQLKPGLSLRSTFLAQFLLVLHRKALTLIKYIEDDTQKGKKPFKSLRNLKIDLDLTAEGDLNIIMALAEKIKPGLHSFIFGRPFYTSVQERDVLMTF

Legend:
[1] = target: T1, endogenous C9orf72 (mouse brain synaptosomes) (mouse (endogenous in mouse brain synaptosomes)) (UniProt Q6DFW0); assay: co-IP; endogenous proteins; crude synaptosomal fraction (P2') of 12-week-old mouse brains solubilised in 80 mM PIPES pH 6.8, 1% NP-40, IP with 50 mM NaCl, 4 µg anti-C9orf72 antibody 16 h at 4 °C, Protein G Mag Sepharose; controls: irrelevant antibody and C9orf72-KO synaptosomes
T1 sequence: B2 chain with L4I, K22E, E50D, I158V, S188A, E198D, S287A, Q386H, V404I

[2] = target: EGFP-tagged Syn1a (UniProt P09951); assay: co-IP; HEK293 co-transfected; modified BRB80 buffer; immunoprecipitation of EGFP/YFP-synapsin with an anti-GFP antibody; immunoblot for GFP/YFP and Myc-C9orf72L
[3] = target: YFP-tagged Syn2a (UniProt Q63537); assay: as above
[4] = target: full-length EGFP-Syn3a (UniProt O70441); assay: as above
[5] = target: EGFP-Syn3aΔBCJE (UniProt O70441); assay: co-IP; HEK293 co-transfected; modified BRB80 buffer; immunoprecipitation of EGFP-Syn3a constructs with GFP-Trap magnetic agarose beads; immunoblot for Myc-C9orf72L and EGFP
[6] = target: EGFP-Syn3aΔCJE (UniProt O70441); assay: as above
[7] = target: EGFP-Syn3aΔE (UniProt O70441); assay: as above
[8] = target: EGFP-Syn3aΔJE (UniProt O70441); assay: as above
[9] = target: full-length EGFP-Syn3a (UniProt O70441); assay: as above

| Binder | binding [1] | binding [2] | binding [3] | binding [4] | binding [5] | binding [6] | binding [7] | binding [8] | binding [9] |
| --- | --- | --- | --- | --- | --- | --- | --- | --- | --- |
| B1 | binds | – | – | – | – | – | – | – | – |
| B2 | – | binds | binds | binds | no binding | no binding | binds | binds | binds |
